{
  "source": "PubChem BioAssay AID504339",
  "about": "(National Center for Advancing Translational Sciences (NCATS), 2011)",
  "note": "Hit rate of the full screen: of about 390,000 compounds, about 17,000 (4.4%) were called active. The inconclusive results got no clear call from the source; some entries with a clear call stand among them for comparison. Calls follow the shape of the dose curve; as a rule, active = well fitted inhibition curve with a large enough effect; inconclusive = small, poorly fitted or top-dose-only effect; inactive = no such curve, though single readings can be large or run the other way. Potencies beside an inconclusive call are fits to weak or partial responses and may not hold up. Potency is read from the fitted curve at half-maximal effect; tags tell the direction and shape of the fitted curve.",
  "data": [
    {"target": "Lysine-specific demethylase 4A (Homo sapiens) (UniProt O75164)", "sequence (O75164 whole entry, looked up, the tested form may be a part)": "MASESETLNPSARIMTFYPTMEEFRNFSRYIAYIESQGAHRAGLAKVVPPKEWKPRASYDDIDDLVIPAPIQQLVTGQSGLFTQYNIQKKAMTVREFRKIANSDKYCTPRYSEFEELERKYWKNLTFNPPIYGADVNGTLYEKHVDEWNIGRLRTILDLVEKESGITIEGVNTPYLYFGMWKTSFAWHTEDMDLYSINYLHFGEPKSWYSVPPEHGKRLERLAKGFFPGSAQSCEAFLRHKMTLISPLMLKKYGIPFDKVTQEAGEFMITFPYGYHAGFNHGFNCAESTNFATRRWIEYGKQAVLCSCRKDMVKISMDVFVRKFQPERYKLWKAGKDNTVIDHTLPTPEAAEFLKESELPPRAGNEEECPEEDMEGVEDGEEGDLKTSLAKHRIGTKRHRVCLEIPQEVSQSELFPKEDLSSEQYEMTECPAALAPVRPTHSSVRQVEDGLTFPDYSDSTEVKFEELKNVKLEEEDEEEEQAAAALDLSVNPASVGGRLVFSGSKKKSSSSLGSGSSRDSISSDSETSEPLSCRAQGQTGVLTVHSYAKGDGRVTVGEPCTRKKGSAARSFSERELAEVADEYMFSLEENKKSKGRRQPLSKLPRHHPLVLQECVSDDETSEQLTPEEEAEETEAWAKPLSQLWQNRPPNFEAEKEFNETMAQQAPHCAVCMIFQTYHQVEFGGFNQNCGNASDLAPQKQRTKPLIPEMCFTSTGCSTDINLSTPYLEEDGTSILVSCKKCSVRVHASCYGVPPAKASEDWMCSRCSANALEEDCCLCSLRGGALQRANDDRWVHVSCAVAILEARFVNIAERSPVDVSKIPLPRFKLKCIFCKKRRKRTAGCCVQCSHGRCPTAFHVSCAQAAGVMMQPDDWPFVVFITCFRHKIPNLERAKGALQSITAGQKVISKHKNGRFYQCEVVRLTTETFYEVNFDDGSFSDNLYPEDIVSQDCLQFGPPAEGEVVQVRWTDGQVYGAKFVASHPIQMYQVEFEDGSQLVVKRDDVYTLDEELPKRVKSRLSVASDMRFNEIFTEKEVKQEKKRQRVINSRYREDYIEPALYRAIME", "assay": "qHTS Assay for Inhibitors of JMJD2A-Tudor Domain; also: nearly all actives have a fitted effect of over 50% in size", "conditions": "AlphaScreen JMJD2A-Tudor / H3K4me3 peptide binding; series mostly up to 114 µM", "values": [
      {"smiles": "COc1ccc(C(=O)NCCn2cc(SCC(=O)Nc3cccc(C)c3)c3ccccc32)cc1", "Potency": "inactive"},
      {"smiles": "Cc1ccc(O)c(C(=O)c2cnn(-c3ccccc3)c2)c1", "Potency": "active: 15.8 µM"},
      {"smiles": "O=C(O)CC(NNC(=O)c1ccccc1)C(=O)Nc1cccc([N+](=O)[O-])c1", "note": "(centres undefined)", "Potency": "inconclusive: 89.1 µM [inhibitor, partial curve]"},
      {"smiles": "C=CCn1c(C)c(/C=C/c2cc[n+](C)cc2)c2ccccc21", "Potency": "inactive"},
      {"smiles": "CC(=O)c1ccc(OCc2ccc(Oc3c(Cl)cccc3[N+](=O)[O-])cc2)cc1", "Potency": "inconclusive: 12.6 µM [inhibitor, full curve, poor fit]"},
      {"smiles": "COc1ccccc1/C=C1\\SC(=S)N(CCC(=O)N2CCCCC2CCO)C1=O", "note": "(centres undefined)", "Potency": "inconclusive: 35.5 µM [inhibitor, partial curve]"},
      {"smiles": "COc1ccc(-n2c(CNC(=O)COc3ccc(Cl)cc3)n[nH]c2=S)cc1", "Potency": "active: 12.6 µM"},
      {"smiles": "COc1cccc(N=Nc2ccc3ccccc3c2O)c1", "Potency": "active: 2.82 µM"},
      {"smiles": "CCOc1ccc(NC(=O)C(NS(=O)(=O)c2cccc3nsnc23)c2ccccc2)cc1", "note": "(centres undefined)", "Potency": "inconclusive: 89.1 µM [inhibitor, partial curve, poor fit]"},
      {"smiles": "Oc1ccccc1C1C=C(c2ccc3c(c2)OCO3)NC(c2cccc(F)c2)N1", "note": "(centres undefined)", "Potency": "inconclusive: 89.1 µM [inhibitor, partial curve]"},
      {"smiles": "CCn1c(=O)n(CC)c2cc(N3CCCCC3)c(NC(=O)Nc3cc(C)cc(C)c3)cc21", "Potency": "inconclusive: 20 µM [inhibitor, full curve]"},
      {"smiles": "COc1ccc(C(CC(=O)Nc2ccccc2OC)n2cccc2)cc1", "note": "(centres undefined)", "Potency": "inconclusive: 20 µM [inhibitor, full curve]"},
      {"smiles": "Cc1cc(C)c(CSc2nnc(C)n3c2cc2occc23)c(C)c1", "Potency": "inconclusive: 28.2 µM [inhibitor, partial curve]"},
      {"smiles": "CCN(Cc1ccccc1)C(=O)c1nc(-c2cccc(F)c2)n2c1CCCCC2", "Potency": "inconclusive: 56.2 µM [inhibitor, partial curve]"},
      {"smiles": "Cc1ccc(CSCCNC(=O)CN(c2cccc([N+](=O)[O-])c2)S(C)(=O)=O)cc1", "Potency": "inconclusive: 50.1 µM [inhibitor, partial curve]"},
      {"smiles": "COc1ccc(-n2c(Cc3cccn3C)nnc2SCC(=O)Nc2ccc(C)cc2C)cc1", "Potency": "inconclusive: 56.2 µM [inhibitor, partial curve]"},
      {"smiles": "CN(c1ccccc1)c1nc(N2CCCC2)nc(-n2ccnc2)n1", "Potency": "inconclusive: 79.4 µM [inhibitor, partial curve]"},
      {"smiles": "CCCCOC(=O)Nc1ccc(N(C)C)cc1", "Potency": "active: 79.4 µM"},
      {"smiles": "COc1ccc(-n2c(C)cc(C(=O)CCl)c2C)cc1", "Potency": "inconclusive: 56.2 µM [inhibitor, partial curve]"},
      {"smiles": "O=C(c1n[nH]c(=O)c2ccccc12)N1CCN(C2c3ccccc3-c3ccccc32)CC1", "Potency": "inconclusive: 39.8 µM [inhibitor, full curve, poor fit]"},
      {"smiles": "CCOc1ccc(/C(=N\\O)C(C)NO)cc1", "note": "(centres undefined)", "Potency": "inconclusive: 56.2 µM [inhibitor, partial curve, poor fit]"},
      {"smiles": "COc1cc(-c2noc(C)c2C(=O)NCCc2c[nH]c3ccccc23)cc(OC)c1OC", "Potency": "inconclusive: 25.1 µM [inhibitor, full curve, poor fit]"},
      {"smiles": "Cc1[nH]c(C(=O)N/N=C/c2ccc(C(=O)O)cc2)c(C)c1C(=O)N/N=C/c1ccc(C(=O)O)cc1", "Potency": "inconclusive: 70.8 µM [inhibitor, single point]"},
      {"smiles": "O=C(Nc1nnc(-c2ccco2)s1)C1CC1", "Potency": "inconclusive: 89.1 µM [inhibitor, single point]"},
      {"smiles": "COc1ccc(-c2csc(NCc3ccco3)n2)cc1C", "Potency": "inconclusive: 56.2 µM [inhibitor, partial curve]"},
      {"smiles": "Cc1nc(N)sc1-c1csc(Nc2ccc(Cl)cn2)n1", "Potency": "inconclusive: 50.1 µM [inhibitor, partial curve]"},
      {"smiles": "CCCCOC(=O)NC1CCc2cc(OC)c(OC)c(OC)c2-c2ccc(SC)c(=O)cc21", "note": "(centres undefined)", "Potency": "inconclusive: 56.2 µM [inhibitor, partial curve]"},
      {"smiles": "Cc1ccc(CN2CCSc3ccc(C(=O)N4CCN(c5cccc(C)c5C)CC4)cc32)cc1", "Potency": "inactive"},
      {"smiles": "FC(F)(F)c1ccccc1/C=N/Nc1ccccn1", "Potency": "inactive"},
      {"smiles": "O=C(O)/C=C1\\NC(=O)c2ccccc21", "Potency": "inconclusive: 28.2 µM [inhibitor, single point]"},
      {"smiles": "Cc1ncc(CO)c(/C=N/NC(=O)c2cccc(S(=O)(=O)N3CCCC3)c2)c1O", "Potency": "active: 22.4 µM"},
      {"smiles": "CCCCc1c(O)cc(C)[nH]c1=O", "Potency": "inactive"},
      {"smiles": "Cc1ccc(C(=O)C(=O)c2ccc(C)c(N)c2)cc1N", "Potency": "inconclusive: 44.7 µM [inhibitor, partial curve]"},
      {"smiles": "CC(Nc1ccccc1N1CCCCC1)C(=O)N1CCc2ccccc21", "note": "(centres undefined)", "Potency": "inconclusive: 50.1 µM [inhibitor, partial curve]"},
      {"smiles": "COc1cc(/C=N/NC(=O)C2COc3ccccc3O2)cc(OC)c1OC", "note": "(centres undefined)", "Potency": "inactive"},
      {"smiles": "CCOC(=O)c1cnc2ccc(F)cc2c1Nc1ccc2c(c1)OCCO2", "Potency": "inconclusive: 39.8 µM [inhibitor, single point]"},
      {"smiles": "Cc1ccc(Oc2cc(NC(=O)CCCn3nc([N+](=O)[O-])cc3C)cc([N+](=O)[O-])c2)cc1", "Potency": "inconclusive: 25.1 µM [inhibitor, full curve, poor fit]"},
      {"smiles": "O=C1OC(Nc2ccc3c(c2)OCO3)c2ccccc21", "note": "(centres undefined)", "Potency": "active: 50.1 µM"},
      {"smiles": "Cc1ccc(N=Nc2ccc(O)c3ncccc23)cc1", "Potency": "inconclusive: 39.8 µM [inhibitor, partial curve]"},
      {"smiles": "Cc1nn(CC(=O)NCc2cccc(F)c2)c(=O)c2cccn12", "Potency": "active: 56.2 µM"},
      {"smiles": "CC1CC(C)CN(CCCNC(=O)c2c(O)nc3ccccn3c2=O)C1", "note": "(centres undefined)", "Potency": "inactive"},
      {"smiles": "CCOc1ccc(CNC(=O)c2ccc3nc(Cc4ccc(OC)cc4)oc3c2)cc1OC", "Potency": "inconclusive: 28.2 µM [inhibitor, full curve, poor fit]"},
      {"smiles": "CCCCC(=O)N(Cc1ccc2c(c1)OCO2)Cc1nc2ccccc2c(=O)[nH]1", "Potency": "active: 31.6 µM"},
      {"smiles": "CC1(C)CC(=O)C2=C(C1)N=C1c3ccccc3C(=O)C1C2c1ccc(Cl)cc1", "note": "(centres undefined)", "Potency": "inconclusive: 31.6 µM [inhibitor, partial curve]"},
      {"smiles": "O=C1/C(=C/Nc2cccc([N+](=O)[O-])c2)CCc2ccccc21", "Potency": "inconclusive: 25.1 µM [inhibitor, full curve]"},
      {"smiles": "Clc1ccc(-c2csc(=Nc3cccnc3)n2CCCn2ccnc2)cc1Cl", "Potency": "active: 39.8 µM"},
      {"smiles": "CCOC(=O)C1CCCN(S(=O)(=O)c2ccc3[nH]c(=O)ccc3c2)C1", "note": "(centres undefined)", "Potency": "inactive"},
      {"smiles": "COc1ccc(N2CCN(C(=O)CCS(=O)(=O)c3cc4c(cc3Cl)NC(=O)CO4)CC2)cc1", "Potency": "inconclusive: 89.1 µM [inhibitor, partial curve]"},
      {"smiles": "Cc1ccc(C)c(N(C)C(=O)C2CCN(S(=O)(=O)c3cccc4nsnc34)CC2)c1", "Potency": "inactive"},
      {"smiles": "CCOC(=O)c1ccccc1NC(=O)CSc1nc2ncccc2[nH]1", "Potency": "inactive"},
      {"smiles": "CC(C)Oc1ccc(OCCn2c(=S)[nH]c3c(N)ncnc32)cc1", "Potency": "active: 5.62 µM"},
      {"smiles": "Cc1ccc2cc(CN(CC3CCCO3)C(=S)NCc3ccco3)c(=O)[nH]c2c1C", "note": "(centres undefined)", "Potency": "inconclusive: 50.1 µM [inhibitor, partial curve]"},
      {"smiles": "Cc1ccc2c(c1)c1c3n2CC(=C2C(=O)OC(C)(C)OC2=O)NC3CCC1", "note": "(centres undefined)", "Potency": "inconclusive: 44.7 µM [inhibitor, partial curve]"},
      {"smiles": "C[C@@H](C(=O)NCCc1c[nH]c2ccccc12)[C@@H]1C[C@@]1(C)[C@@H](NC(=O)OCc1ccccc1)c1ccccc1", "Potency": "inconclusive: 50.1 µM [inhibitor, partial curve]"},
      {"smiles": "COC(=O)CCc1sc(Nc2ccc(OC)cc2)nc1-c1ccc(OC)cc1", "Potency": "inconclusive: 44.7 µM [inhibitor, partial curve]"},
      {"smiles": "Cc1ccc(N(CC(=O)NCc2ccco2)S(=O)(=O)c2ccccc2)cc1", "Potency": "inconclusive: 79.4 µM [inhibitor, partial curve]"},
      {"smiles": "Cc1ccc(S(=O)(=O)N2CCOCC2)cc1NC(=O)c1ccc(F)cc1F", "Potency": "inactive"},
      {"smiles": "COc1ccc(-c2nc(NC(=O)c3ccc(OCC(=O)N4CCOCC4)c(OC)c3)sc2C)cc1", "Potency": "inconclusive: 39.8 µM [inhibitor, single point]"},
      {"smiles": "O=C(CN1CCN(S(=O)(=O)c2ccc(Cl)cc2)CC1)c1ccc(O)c(O)c1", "Potency": "active: 17.8 µM"},
      {"smiles": "CC1Cc2ccccc2N1C(=O)CNc1cccc(S(=O)(=O)N2CCCC2)c1", "note": "(centres undefined)", "Potency": "active: 6.31 µM"},
      {"smiles": "Cc1ccc(/C=c2\\sc3nc(-c4cccnc4)nn3c2=O)cc1", "Potency": "inconclusive: 56.2 µM [inhibitor, partial curve]"},
      {"smiles": "O=C(O)c1cccnc1-c1ncccc1C(=O)O", "Potency": "inconclusive: 20 µM [inhibitor, partial curve, poor fit]"},
      {"smiles": "CNc1cccc(S(=O)(=O)N2CCCN(S(=O)(=O)c3ccc4c(c3)OCCO4)CC2)c1", "Potency": "inconclusive: 56.2 µM [inhibitor, partial curve]"},
      {"smiles": "CCC(=O)N(Cc1ccco1)c1nc(-c2cc(OC)ccc2OC)cs1", "Potency": "inactive"},
      {"smiles": "Nc1nn(-c2ccccc2)c(N)c1N=Nc1ccccc1F", "Potency": "inconclusive: 44.7 µM [inhibitor, partial curve]"},
      {"smiles": "COCCN1C(=O)C(=O)/C(=C(/O)c2cccc(OC)c2)C1c1ccc(C)o1", "note": "(centres undefined)", "Potency": "inconclusive: 89.1 µM [inhibitor, single point]"},
      {"smiles": "COCCNC(=O)CCC(=O)NNc1nc2ccccc2c2nc(-c3ccccc3)nn12", "Potency": "inactive"},
      {"smiles": "CCOc1ccccc1OCCCNCc1ccccc1", "Potency": "active: 5.01 µM"},
      {"smiles": "O=C(Nc1ccn(CCCN(CCCn2ccc(NC(=O)OCc3ccccc3)nc2=O)CCc2cc3ccccc3[nH]2)c(=O)n1)OCc1ccccc1", "Potency": "inconclusive: 25.1 µM [inhibitor, full curve]"}
    ]}
  ]
}
